Test results published in the antibiotic and cytotoxicity screens of Wong et al. (2023).
The list shows a part of the results.

Legend:
[1] = tested on: HSkMC (human skeletal muscle cells); assay: cytotoxicity call (relative viability < 0.9); settings: 10 µM
[2] = tested on: S. aureus RN4220; assay: growth inhibition call (relative growth <= 0.2); settings: 50 µM

| SMILES | cytotoxicity call [1] | growth inhibition call [2] |
| --- | --- | --- |
| Nc1cc(F)ccc1CO | inactive | inactive |
| Cc1c(C)n2c3c(=O)n(C)c(=O)n(C)c3nc2n1CCN1CCOCC1 | inactive | inactive |
| C[C@H]1CN([C@@H](C)CO)C(=O)c2cccc(NC(=O)NC3CCCCC3)c2O[C@@H]1CN(C)C(=O)Nc1ccc(C(F)(F)F)cc1 | inactive | inactive |
| C[C@@H]1CN([C@@H](C)CO)C(=O)c2c(c3ccccc3n2C)-c2ccccc2CO[C@H]1CN(C)C(=O)c1ccc(F)cc1 | inactive | inactive |
| O=C(C[C@H]1CC[C@@H]2[C@H](COC[C@H](O)CN2C(=O)c2ccccc2F)O1)N1CCN(c2ccccc2)CC1 | inactive | inactive |
| C/C=C/c1ccc2c(c1)O[C@H](CN(C)S(=O)(=O)c1ccc(F)cc1)[C@H](C)CN([C@H](C)CO)S2(=O)=O | inactive | inactive |
| C=CCOC(=O)N(C)C[C@@H]1OCCCC[C@H](C)Oc2ccc(NC(=O)Nc3ccccc3)cc2C(=O)N([C@H](C)COC(=O)c2ccccc2)C[C@H]1C | inactive | inactive |
| C=CCC[C@H](Cc1ccc(F)cc1)C(=O)O[C@H](CNC(=O)[C@H](CC=C)CC(=O)N(CCO)Cc1ccccc1)c1ccccc1 | inactive | inactive |
| C[C@@H]1CCCCO[C@H](CN(C)S(=O)(=O)c2ccc(Cl)cc2)[C@@H](C)CN([C@H](C)CO)C(=O)c2cc(NC(=O)c3ccccc3)ccc2O1 | inactive | inactive |
| NCc1ccc(C(=O)N2CCCCC2)cc1 | inactive | inactive |
| C[C@H](CO)N1C[C@H](C)[C@@H](CN(C)C(=O)Nc2ccc(C(F)(F)F)cc2)Oc2ncc(/C=C/c3ccccc3)cc2C1=O | inactive | inactive |
| Cc1ccc(S(=O)(=O)N(C)C[C@H]2Oc3ccc(NC(=O)Nc4ccc(C(F)(F)F)cc4)cc3CC(=O)N([C@H](C)CO)C[C@@H]2C)cc1 | active | inactive |
| O=C(C1CC1)N1CCN(c2ncccn2)CC1 | inactive | inactive |
| Cc1ccc(S(=O)(=O)Nc2ccc3c(c2)C(=O)N([C@H](C)CO)C[C@H](C)[C@@H](CN(C)Cc2ccc(Cl)c(Cl)c2)OCCCC[C@H](C)O3)cc1 | inactive | inactive |
| C[C@@H]1CN([C@H](C)CO)C(=O)c2cc(C#Cc3cccc(F)c3)cnc2O[C@@H]1CN(C)Cc1ccccn1 | inactive | inactive |
| C[C@@H]1CN([C@H](C)CO)C(=O)c2cc(NC(=O)CCC(F)(F)F)ccc2O[C@@H](C)CCCCO[C@H]1CN(C)S(=O)(=O)c1cccs1 | inactive | inactive |
| CN1C(=O)[C@@H](O)N(c2ccccc2)C1=O | inactive | inactive |
| COc1ccc(CN(C)C[C@H]2OCCCC[C@@H](C)Oc3ccc(NS(=O)(=O)c4ccc(F)cc4)cc3C(=O)N([C@H](C)CO)C[C@@H]2C)cc1 | inactive | inactive |
| C[C@H](CO)N1C[C@H](C)[C@@H](CN(C)Cc2ccc(C(=O)Nc3ccccc3N)cc2)Oc2c(NS(=O)(=O)c3ccc(Cl)cc3)cccc2C1=O | inactive | inactive |
| COc1ccc(S(=O)(=O)Nc2ccc3c(c2)C(=O)N([C@H](C)CO)C[C@@H](C)[C@@H](CN(C)CC2CC2)O3)cc1 | inactive | inactive |

| SMILES | cytotoxicity call [1] | growth inhibition call [2] |
| --- | --- | --- |
| C/C(C[P+](c1ccccc1)(c1ccccc1)c1ccccc1)=N\NC(=O)CCCCCC(=O)Nc1ccccc1O | inactive | inactive |
| O=C1c2ccccc2[C@@]2(Cc3ccccc3N(C3CC3)C2=O)[C@H](c2ccc(CO)cc2)N1Cc1ccccc1Cl | inactive | inactive |
| Cn1cnc(S(=O)(=O)N[C@@H]2CC[C@H](CC(=O)NCC3CC3)O[C@H]2CO)c1 | inactive | inactive |
| C[C@@H]1CCCCO[C@@H](CN(C)S(=O)(=O)c2cn(C)cn2)[C@@H](C)CN([C@H](C)CO)C(=O)c2cc(NC(=O)c3ccncc3)ccc2O1 | inactive | inactive |
| COc1cccc(C#Cc2ccc([C@H]3[C@H](CO)N4C(=O)CN(S(=O)(=O)c5ccccc5C)C[C@@H]34)cc2)c1 | inactive | inactive |
| CC(C)NC(=O)Nc1ccc2c(c1)C(=O)N([C@@H](C)CO)C[C@H](C)[C@@H](CN(C)C(=O)Nc1ccc(F)cc1)OCCCC[C@H](C)O2 | inactive | inactive |
| COc1ccc(S(=O)(=O)Nc2ccc3c(c2)C(=O)N([C@H](C)CO)C[C@H](C)[C@H](CN(C)C(=O)c2ccccc2)OCCCC[C@H](C)O3)cc1 | inactive | inactive |
| C[C@@H]1CN([C@@H](C)CO)C(=O)c2cc(NS(=O)(=O)c3ccc(F)cc3)ccc2O[C@@H](C)CCCCO[C@@H]1CN(C)C(=O)Nc1ccc(F)cc1 | inactive | inactive |
| COc1ccccc1CNC(=O)C[C@H]1C[C@H]2c3cc(NC(=O)Nc4ccc(C(F)(F)F)cc4)ccc3O[C@H]2[C@H](CO)O1 | inactive | inactive |
| C[C@@H]1CN([C@H](C)CO)C(=O)Cc2cc(NC(=O)NC3CCCCC3)ccc2O[C@@H]1CN(C)Cc1ccc(C(F)(F)F)cc1 | inactive | inactive |
| Cn1cnc(S(=O)(=O)N2C[C@H](O)COC[C@H]3O[C@H](CC(=O)NC4Cc5ccccc5C4)CC[C@@H]32)c1 | inactive | inactive |
| COc1ccc(NC(=O)N(C)C[C@H]2OCCCC[C@H](C)Oc3ccc(NC(=O)NC4CCCCC4)cc3C(=O)N([C@H](C)CO)C[C@@H]2C)cc1 | inactive | inactive |
| CO[C@@H]1CN(C)C(=O)c2ccc(NS(=O)(=O)CC(F)(F)F)cc2OC[C@@H](C)N(Cc2nccs2)C[C@H]1C | inactive | inactive |
| C[C@@H]1CN([C@@H](C)CO)C(=O)c2cccc(NC(=O)CCCCCC(=O)Nc3ccccc3N)c2O[C@H]1CN(C)CC1CCCCC1 | inactive | inactive |
| CC(C)NC(=O)Nc1ccc2c(c1)C(=O)N([C@H](C)CO)C[C@H](C)[C@@H](CN(C)CC1CCCCC1)OCCCC[C@H](C)O2 | inactive | inactive |
| C[C@@H]1CN([C@@H](C)CO)C(=O)Cc2cc(NC(=O)Cn3cnnn3)ccc2O[C@@H]1CN(C)S(=O)(=O)c1ccc(F)cc1 | inactive | inactive |
| O=C(N/N=C/[C@H](O)[C@@H](O)[C@H](O)[C@H](O)CO)c1ccccn1 | inactive | inactive |
| O=C(C[C@@H]1C[C@@H]2c3cc(NS(=O)(=O)c4ccc(F)cc4)ccc3O[C@@H]2[C@H](CO)O1)NCc1ccc(Oc2ccccc2)cc1 | inactive | inactive |
| COC(=O)c1c(CC[C@@H](CO)NC(=O)N2CCC[C@H]2Cn2cc(-c3ccccn3)nn2)oc(C(C)=O)c1C(=O)OC | inactive | inactive |
| CCC(=O)c1ccc(O)cc1 | inactive | inactive |

| SMILES | cytotoxicity call [1] | growth inhibition call [2] |
| --- | --- | --- |
| COc1ccc(S(=O)(=O)N(C)C[C@@H]2OCCCC[C@@H](C)Oc3ccc(NC(=O)CCC(F)(F)F)cc3C(=O)N([C@@H](C)CO)C[C@@H]2C)cc1 | inactive | inactive |
| C[C@H]1CN([C@@H](C)CO)S(=O)(=O)c2ccc(C#Cc3ccncc3)cc2O[C@@H]1CN(C)S(=O)(=O)c1ccc(F)cc1 | active | inactive |
| COc1ccc(CN(C)C[C@H]2Oc3c(NS(=O)(=O)c4c(C)noc4C)cccc3C(=O)N([C@H](C)CO)C[C@H]2C)cc1 | inactive | inactive |
| CNC(=O)C(=O)NC[C@H]1CCCN1S(=O)(=O)c1cccs1 | inactive | inactive |
| O=S(=O)(NCCCCN(C/C=C/c1ccccc1)C/C=C/c1ccccc1)c1cccc2cnccc12 | inactive | inactive |
| C[C@@H]1CN([C@H](C)CO)C(=O)c2cccc(NC(=O)Nc3ccc4c(c3)OCO4)c2O[C@H]1CN(C)Cc1ccc(Cl)c(Cl)c1 | inactive | inactive |
| COc1ccccc1CN(C)C[C@H]1OCc2ccccc2-c2c(n(C)c3ccccc23)C(=O)N([C@@H](C)CO)C[C@@H]1C | inactive | inactive |
| C[C@@H]1CN([C@@H](C)CO)C(=O)c2c(c3ccccc3n2C)-c2ccccc2CO[C@@H]1CN(C)Cc1ccc2c(c1)OCO2 | inactive | inactive |
| CC(C)NC(=O)Nc1ccc2c(c1)CC(=O)N([C@H](C)CO)C[C@H](C)[C@H](CN(C)Cc1ccc(C(=O)O)cc1)O2 | inactive | inactive |
| C[C@@H]1CN([C@@H](C)CO)C(=O)c2cccc(NS(=O)(=O)c3cn(C)cn3)c2O[C@H]1CN(C)C(=O)NC1CCCCC1 | inactive | inactive |
| COc1ccc(S(=O)(=O)Nc2ccc3c(c2)C(=O)N([C@H](C)CO)C[C@@H](C)[C@@H](CN(C)Cc2ccc(Oc4ccccc4)cc2)O3)cc1 | inactive | inactive |
| O=C(C[C@@H]1C[C@@H]2c3cc(NC(=O)Cc4ccncc4)ccc3O[C@@H]2[C@H](CO)O1)NCc1cccc(F)c1 | inactive | inactive |
| C[C@@H]1CN([C@H](C)CO)C(=O)Cc2cc(NS(=O)(=O)c3ccc(Cl)cc3)ccc2O[C@@H]1CN(C)C | inactive | inactive |
| C[C@@H]1CN([C@H](C)CO)C(=O)c2cccc(NC(=O)c3ccncc3)c2O[C@@H]1CN(C)Cc1ccc(-c2ccccc2)cc1 | inactive | inactive |
| O=c1ccc(-c2ccncc2)n[nH]1 | inactive | inactive |
| CCC1OC(=O)C(C)C(OC2CC(C)(OC)C(O)C(C)O2)C(C)C(OC2OC(C)CC(N(C)C)C2O)C(C)(O)CC(C)C(=O)C(C)C(O)C1(C)O (stereo not given) | inactive | active |
| COc1ccc2c3c([nH]c2c1)[C@H](CO)N(C[C@]13CCN(CC1)C(=O)c1ccccc1F)C(=O)Nc1ccc(cc1)F | inactive | inactive |
| Cc1noc(C)c1S(=O)(=O)Nc1ccc2c(c1)C(=O)N([C@H](C)CO)C[C@H](C)[C@@H](CN(C)C)OCCCC[C@H](C)O2 | inactive | inactive |
| O=C(C[C@@H]1C[C@@H]2c3cc(NC(=O)c4ccc5c(c4)OCO5)ccc3O[C@@H]2[C@@H](CO)O1)NCc1ccc(Oc2ccccc2)cc1 | active | inactive |
| COc1ccc(S(=O)(=O)N(C)C[C@@H]2Oc3ccc(NC(=O)NC(C)C)cc3CC(=O)N([C@H](C)CO)C[C@H]2C)cc1 | inactive | inactive |
